In the antibiotic and cytotoxicity screens of Wong et al. (2023):
Some of the results follow.

system: S. aureus RN4220; assay: growth inhibition call (relative growth <= 0.2); settings: 50 µM

Growth inhibition call, inactive:
C[C@H](CO)N1C[C@H](C)[C@H](CN(C)C(=O)Nc2ccc(C(F)(F)F)cc2)Oc2ccc(NC(=O)Cn3cnnn3)cc2C1=O
CNC(=O)C[C@H]1CC[C@H]2[C@@H](COC[C@H](O)CN2C(=O)Nc2ccc3c(c2)OCO3)O1
COC(=O)c1c(CC[C@@H](CO)NC(=O)N[C@@H](C)Cn2cc(-c3ccccn3)nn2)oc(C(C)=O)c1C(=O)OC
C[C@@H]1CN([C@H](C)CO)C(=O)Cc2cc(NC(=O)CCN3CCOCC3)ccc2O[C@@H]1CN(C)S(=O)(=O)c1ccccc1
C[C@@H]1CCCCO[C@@H](CN(C)Cc2ccncc2)[C@@H](C)CN([C@H](C)CO)C(=O)c2cc(NC(=O)c3ccccc3)ccc2O1
C[C@@H]1CN([C@@H](C)CO)C(=O)Cc2cc(NS(C)(=O)=O)ccc2O[C@@H]1CN(C)S(=O)(=O)c1ccc(Cl)cc1
C[C@H](CO)N1C[C@H](C)[C@@H](CN(C)CC2CC2)Oc2ccc(NC(=O)CCN3CCOCC3)cc2CC1=O
Cc1noc(C)c1S(=O)(=O)Nc1ccc2c(c1)CC(=O)N([C@@H](C)CO)C[C@H](C)[C@@H](CN(C)Cc1ccc3c(c1)OCO3)O2
O=C(Nc1ccccc1)c1cc2c(c(-c3cccc(-c4ccncc4)c3)n1)[C@@H](CCO)N(CC1CCOCC1)C2
CC(=O)NC(CCC(N)=O)C(=O)O (stereo not given)
C[C@@H]1CN([C@@H](C)CO)C(=O)c2cc(NS(=O)(=O)c3cccs3)ccc2O[C@@H](C)CCCCO[C@H]1CN(C)C(=O)Nc1ccc(F)cc1
C[C@@H]1CCCCO[C@H](CN(C)Cc2ccc(C(F)(F)F)cc2)[C@H](C)CN([C@H](C)CO)C(=O)c2cc(NS(=O)(=O)c3ccc(Cl)cc3)ccc2O1
C[C@H]1CN([C@@H](C)CO)C(=O)c2cccc(NS(=O)(=O)c3ccccc3)c2O[C@H]1CN(C)Cc1ccncc1
C[C@@H]1CN([C@@H](C)CO)C(=O)CCCn2nncc2CO[C@@H]1CN(C)C(=O)Nc1ccccc1C(F)(F)F
CC(=O)N[C@H]1C(=O)Nc2ccc(F)cc21
C[C@@H]1CN([C@@H](C)CO)C(=O)c2cc(NC(=O)C3CCCCC3)ccc2O[C@@H]1CN(C)C(=O)Nc1cccc2ccccc12
C[C@@H]1CN([C@@H](C)CO)C(=O)c2cc(NS(=O)(=O)c3ccccc3)ccc2O[C@H]1CN(C)S(C)(=O)=O
Cc1ccc(S(=O)(=O)N(C)C[C@H]2OCCCC[C@H](C)Oc3ccc(NC(=O)C4CCCCC4)cc3C(=O)N([C@H](C)CO)C[C@@H]2C)cc1
C[C@H](CO)N1C[C@H](C)[C@@H](CN(C)C(=O)Nc2cccc3ccccc23)Oc2ccc(NC(=O)NC3CCCCC3)cc2CC1=O
C[C@H](CO)N1C[C@H](C)[C@@H](CN(C)Cc2ccc(C(=O)Nc3ccccc3N)cc2)Oc2c(NC(=O)Nc3ccc(F)cc3)cccc2C1=O
C[C@H](CO)N1C[C@H](C)[C@H](CN(C)S(=O)(=O)c2ccccc2)Oc2c(NS(C)(=O)=O)cccc2C1=O
COc1ccc(S(=O)(=O)Nc2ccc3c(c2)CC(=O)N([C@H](C)CO)C[C@H](C)[C@H](CN(C)S(C)(=O)=O)O3)cc1
Cc1ccc(S(=O)(=O)N(C)C[C@@H]2OCCCC[C@H](C)Oc3ccc(NC(=O)Nc4ccc(F)cc4)cc3C(=O)N([C@H](C)CO)C[C@@H]2C)cc1
C[C@@H]1CN([C@H](C)CO)C(=O)c2cc(NS(C)(=O)=O)ccc2O[C@H]1CN(C)S(=O)(=O)c1ccccc1
CCn1c(C)cc(C)c(C(=O)N2C[C@H]3C(=O)NC[C@@]3(C(=O)O)C2)c1=O
COCCn1c(=NN)[nH]c2ccsc2c1=O
C[C@H]1CN([C@@H](C)CO)C(=O)CCCn2nncc2CO[C@H]1CN(C)C(=O)Nc1ccc(N2CCN(C)CC2)cc1
C[C@@H]1CN([C@@H](C)CO)C(=O)c2c(c3ccccc3n2C)-c2ccccc2CO[C@@H]1CN(C)C(=O)Nc1ccccc1
CS(=O)(=O)Nc1ccc2c(c1)[C@H]1C[C@H](CC(=O)NCC3CC3)O[C@@H](CO)[C@H]1O2
C[C@@H]1CN([C@@H](C)CO)S(=O)(=O)c2ccc(-c3ccc(C(=O)N(C)C)cc3)cc2O[C@@H]1CN(C)C(=O)Cc1ccccn1
C[C@@H]1CN([C@@H](C)CO)C(=O)c2cc(C#CC3(O)CCCC3)cnc2O[C@H]1CN(C)C(=O)Nc1ccc2c(c1)OCO2
C[C@H]1CN([C@@H](C)CO)C(=O)c2cc(-c3ccc(F)cc3)cnc2O[C@@H]1CN(C)C(=O)Cc1ccccn1
COc1ccccc1CNC(=O)C[C@@H]1C[C@H]2c3cc(NC(=O)C4CCOCC4)ccc3O[C@H]2[C@H](CO)O1
COc1ccc([C@@H]([C@H](Cc2ccccc2)OC(C)=O)N2C[C@H]3C(=NO[C@@H]3[C@@H](OC(C)=O)c3ccccc3)[C@@H]2Cc2ccccc2)cc1
C[C@@H]1CN([C@@H](C)CO)C(=O)c2cc(NS(=O)(=O)c3ccc(F)cc3)ccc2O[C@@H](C)CCCCO[C@@H]1CN(C)S(=O)(=O)c1cn(C)cn1
CC1=C(/C=C/C(C)=C/C=C/C(C)=C/C(=O)O)C(C)(C)CCC1
Cc1ccc(S(=O)(=O)N(C)C[C@H]2Oc3c(NC(=O)c4cnccn4)cccc3C(=O)N([C@H](C)CO)C[C@@H]2C)cc1
O=C1OCC=C[C@H]2O[C@@]34C=CCN(Cn5nnc6ccccc65)C(=O)[C@H]3N(CCO)C(=O)[C@@H]4[C@@H]12
C[C@@H]1CN([C@H](C)CO)C(=O)Cc2cc(NS(C)(=O)=O)ccc2O[C@@H]1CN(C)C(=O)Nc1ccc2c(c1)OCO2
C[C@H](CO)N1C[C@H](C)[C@@H](CN(C)Cc2ccc(-c3ccccc3)cc2)Oc2c(NS(=O)(=O)c3ccccc3)cccc2C1=O
